# PMC10730909
# The chains behind the UniProt entries cited, without tags or fusion partners.
# UniProt Q96EP0: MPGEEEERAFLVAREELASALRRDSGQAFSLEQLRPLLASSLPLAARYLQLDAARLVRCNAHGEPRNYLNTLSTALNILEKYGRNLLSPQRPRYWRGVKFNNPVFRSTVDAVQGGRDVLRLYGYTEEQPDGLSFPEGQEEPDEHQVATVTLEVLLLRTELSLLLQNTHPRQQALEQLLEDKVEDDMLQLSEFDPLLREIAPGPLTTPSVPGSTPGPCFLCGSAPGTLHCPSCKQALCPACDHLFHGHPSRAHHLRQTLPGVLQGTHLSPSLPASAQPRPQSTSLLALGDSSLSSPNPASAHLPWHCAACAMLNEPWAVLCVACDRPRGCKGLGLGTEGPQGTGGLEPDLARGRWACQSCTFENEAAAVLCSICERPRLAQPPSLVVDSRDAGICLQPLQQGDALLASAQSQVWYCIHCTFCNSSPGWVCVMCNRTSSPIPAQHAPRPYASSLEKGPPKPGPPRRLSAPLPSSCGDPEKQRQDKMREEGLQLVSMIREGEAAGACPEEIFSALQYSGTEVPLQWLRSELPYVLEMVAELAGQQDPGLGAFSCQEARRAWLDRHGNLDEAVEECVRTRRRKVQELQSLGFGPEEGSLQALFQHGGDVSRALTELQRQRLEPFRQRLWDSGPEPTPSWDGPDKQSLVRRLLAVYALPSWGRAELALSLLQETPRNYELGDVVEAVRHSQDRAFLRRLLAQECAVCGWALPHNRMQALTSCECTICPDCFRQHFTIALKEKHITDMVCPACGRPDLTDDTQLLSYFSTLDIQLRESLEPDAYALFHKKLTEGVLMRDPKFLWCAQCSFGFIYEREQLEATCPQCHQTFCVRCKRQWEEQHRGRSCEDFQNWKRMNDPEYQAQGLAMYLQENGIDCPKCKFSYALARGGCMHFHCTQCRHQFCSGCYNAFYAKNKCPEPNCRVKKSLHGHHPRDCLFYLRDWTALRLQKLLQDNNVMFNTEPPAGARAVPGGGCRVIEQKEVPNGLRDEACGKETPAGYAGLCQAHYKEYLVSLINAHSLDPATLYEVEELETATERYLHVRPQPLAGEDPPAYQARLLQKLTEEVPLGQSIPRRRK
# Results are given in words; binding and its absence hold for the method and conditions named. For part of these data: In cells and extracts the contact can be indirect. Some binding calls cover weakened binding; strength is not graded here.
# Assays:
# [1] = target: HA-tagged wildtype NEMO (human) (UniProt Q9Y6K9); experiment: co-IP; HEK293T cells transfected with HA-NEMO, lysed in 1% Triton X-100 in PBS; anti-HA beads, blot for the endogenous partner (HOIP, p62); anti-c-myc beads or FLAG-NEMO as control for unspecific binding
# [2] = target: HA-tagged Q330X NEMO (human) (UniProt Q9Y6K9); experiment: as above
# [3] = target: recombinant MBP-NEMO WT (human) (UniProt Q9Y6K9); experiment: pull-down; 2.5 µM recombinant MBP-NEMO and 2 µM recombinant mCherry-p62 without linear tetra-ubiquitin, 25 µL MBP affinity agarose beads, 4 h at 4 °C; 50 mM HEPES pH 7.4, 150 mM NaCl, 1% Triton X-100, 10% glycerol; blot for p62; both purified
# [4] = target: recombinant MBP-NEMO Q330X (human) (UniProt Q9Y6K9); experiment: as above
# [5] = target: recombinant MBP-NEMO Q330X (human) (UniProt Q9Y6K9); experiment: condition: 2 µM mCherry-p62, 2.5 µM MBP-NEMO Q330X, 1 µM 4×M1-ub; pull-down; 2.5 µM recombinant MBP-NEMO and 2 µM recombinant mCherry-p62 with 1 µM recombinant linear tetra-ubiquitin (4×M1-ub), 25 µL MBP affinity agarose beads, 4 h at 4 °C; 50 mM HEPES pH 7.4, 150 mM NaCl, 1% Triton X-100, 10% glycerol; blot for p62; both purified
binding [1],binding [2],binding [3],binding [5],Substance,binding [4]
binds,no binding,–,–,endogenous HOIP (from UniProt Q96EP0 1-1072) (enzyme),–
–,no binding,–,–,endogenous p62 (from UniProt Q13501 1-440),–
–,–,binds weakly,no binding,recombinant 6xHis-mCherry-p62 (from UniProt Q13501 1-440),"no binding (tested: 2 µM mCherry-p62, 2.5 µM MBP-NEMO Q330X)"
